PubChem BioAssay AID1347073 (National Center for Advancing Translational Sciences (NCATS), 2019)
In all, about 45,000 compounds went through this assay and about 200 (0.44%) were called active. About 7% were inconclusive and are not listed. Calls come from the whole dose curve; as a rule, active = well fitted activation curve with a large enough effect; inconclusive = small, poorly fitted or top-dose-only effect; inactive = no such curve, though single readings can be large or run the other way. Some of the results follow.

Test: qHTS of TDP-43 Inhibitors: NCGC Sytravon Library Screen; note: 0% is about no effect; nearly all actives have a fitted effect of over 55% in size
Details: yeast TDP-43 toxicity rescue, BacTiter-Glo growth, 24 h; series mostly up to 46.1 µM; growth rescue (activation): at the top concentration
Method in brief: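 TDP-43-expressing yeast, pregrown in raffinose, seeded at OD600 0.02 in galactose medium with compound for 24 hr at 30 deg C. Growth read by BacTiter-Glo luminescence, so rescue of toxicity appears as activation.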

Row | Structure (SMILES) | growth rescue (activation)
1 | COC(=O)Nc1ccc(S(=O)(=O)NC2CCS(=O)(=O)C2)cc1 (centres undefined) | inactive: 26.5%
2 | Cc1ccc(OCC(=O)OCC(=O)Nc2sccc2C(N)=O)cc1C | inactive: -17.8%
3 | Cc1ccc(NC(=O)C2CCN(S(=O)(=O)c3c(C)noc3C)CC2)cc1C | inactive: 0.525%
4 | CC(C)c1cccc(-c2csc(C(C)(O)c3ccccc3)n2)c1 (centres undefined) | inactive: -76.3%
5 | Cc1ccc(/C=N/NC(=O)C[n+]2ccccc2)s1 | inactive: -3.12%
6 | O=C(NCc1cccnc1)c1cc(C2CCCCN2S(=O)(=O)c2cccc3cccnc23)on1 (centres undefined) | inactive: 10.1%
7 | O=C(O)Cn1c(=O)c(F)cn(C2CCCO2)c1=O (centres undefined) | inactive: 16.9%
8 | Cc1coc2c1c(C)cc1oc(=O)c(CC(=O)N[C@H](C(=O)O)C(C)C)c(C)c12 | inactive: -0.879%
9 | CNc1c(NS(=O)(=O)c2cc(Cl)ccc2OC)c(=O)oc2ccccc12 | inactive: -1.06%
10 | O=C(CSc1nccn1C1CCCC1)Nc1ccccc1 | inactive: 11.5%
11 | CCOC(=O)CSc1nc2ccccc2n2c(C)nnc12 | inactive: 8.66%
12 | COc1ccc(CNC(=O)CN(C(=O)CCC(=O)Nc2nccs2)c2ccc(C)cc2)cc1 | inactive: 10.3%
13 | O=C(CSc1nnc(Nc2ccccc2)s1)NC1CCS(=O)(=O)C1 (centres undefined) | inactive: 4%
14 | S=c1[nH]nc(-c2ccco2)n1-c1ccc(Cl)cc1 | inactive: -7.33%
15 | CCOC(=O)C1=C(C)N(C)C(=O)NC1c1cccc2ccccc12 (centres undefined) | inactive: 12.5%
16 | CCN(CC)C(=O)CSC(Nc1ccc(F)cc1)=C(C#N)C#N | inactive: 6.54%
17 | OC(c1cccc(Cl)c1)c1nc(-c2ccc(Cl)cc2)cs1 (centres undefined) | inactive: -85.1%
18 | COc1ccc(C(=O)Nc2cc(C(C)=O)c(C)oc2=O)cc1 | inactive: 6.06%
19 | CCOC(=O)N1CCN(c2c(NCCN3CCN(c4ccccc4F)CC3)c(=O)c2=O)CC1 | inactive: -0.992%
20 | N=C(N)SCc1cn2ccccc2n1 | inactive: 21.5%
21 | COc1ccc(NC(=O)c2ccco2)c(OC)c1 | inactive: 20.9%
22 | O=C(NC1CCCCC1)C(c1cccnc1)N(CCc1ccccc1)C(=O)Cc1cccs1 (centres undefined) | inactive: -6.71%
23 | CC(OC(=O)c1ccc(S(=O)(=O)N(C)c2ccccc2)cc1)C(=O)NCCC1=CCCCC1 (centres undefined) | inactive: -13.7%
24 | CCN(CC)S(=O)(=O)c1ccc(OC)c(N)c1 | inactive: 6.49%
25 | Cc1nc(C(C)N(C)Cc2c(C(=O)N3CCCCC3)nc3c(C)cccn23)c(C)s1 (centres undefined) | inactive: -14.4%
26 | CCN(C(=O)COC(=O)c1nccnc1N)c1cccc2ccccc12 | inactive: 19.3%
27 | O=C(NCc1ccc2c(c1)OCO2)c1ccccc1 | inactive: 1.6%

Row | Structure (SMILES) | growth rescue (activation)
28 | CCCc1ccc(OCc2nc(-c3ccc(NC(=O)c4cccs4)cc3)no2)cc1 | inactive: 7.25%
29 | CCOC1=NS(=O)(=O)c2ccccc21 | inactive: -3.22%
30 | O=C(COC(=O)/C=C/c1ccc([N+](=O)[O-])cc1)NNC(=O)c1ccccc1 | inactive: 16.2%
31 | O=C(CSc1nnc(C2CC2)n1C1CC1)c1cc(F)ccc1F | inactive: 5.56%
32 | CN1C(=O)/C(=C/c2ccc(O)c([N+](=O)[O-])c2)NC1=S | inactive: -0.799%
33 | Cc1ccc(S(=O)(=O)/N=C(/c2ccccc2)N2CCOCC2)c(C)c1 | inactive: -15.2%
34 | COc1ccc(NS(=O)(=O)c2cc(NC(=O)c3ccccc3F)ccc2N2CCCC2)cc1 | inactive: 10.5%
35 | CC(=O)N1N=C(c2cccs2)CC1c1ccco1 (centres undefined) | inactive: 19%
36 | Nn1c(C2CCC2)nc2ccccc2c1=O | inactive: -7.93%
37 | O=C(O)c1cc2c(cc1NC(=O)c1c(F)cccc1Cl)OCCCO2 | inactive: -0.267%
38 | O=C1CCC[C@@H]2[C@H]3CCC[N+]4([O-])CCC[C@@H](CN12)[C@@H]34 (some centres undefined) | inactive: 9.34%
39 | Cc1ccc2nc3c(cc(C(=O)NCCc4ccccc4)c(=N)n3CCN3CCOCC3)c(=O)n2c1 | inactive: -6.48%
40 | O=C(CSc1nncn1-c1ccccc1)N1CCCC1 | inactive: -10.1%
41 | COc1ccc(C2CC(c3ccc(Br)cc3)=NN2C(=O)CCC(=O)O)cc1OC (centres undefined) | inactive: 5.01%
42 | COc1cc(/C=N/Nc2cc(C)nc(NS(=O)(=O)c3ccccc3)n2)ccc1O | inactive: -16.5%
43 | N#Cc1c(SCC(N)=O)nc(-c2ccccc2)c2c1CCCC2 | inactive: -5.66%
44 | CC1Cc2cc(-c3csc(NC(=O)CCl)n3)ccc2N1C(=O)C1CC1 (centres undefined) | inactive: 5.93%
45 | CCOc1ccccc1-c1nc(CN2CCC(C(=O)N3CCOCC3)CC2)c(C)o1 | inactive: -16.2%
46 | Cc1c(/C(O)=C2\C(=O)C(=O)N(CCCN(C)C)C2c2ccco2)cnn1-c1ccccc1 (centres undefined) | inactive: 7.9%
47 | CCN1c2ccccc2S(=O)(=O)c2ccccc21 | inactive: 26.7%
48 | CN(C(=O)COC(=O)Cc1ccc(Cl)cc1)C1CCCCC1 | inactive: -9.6%
49 | CC1CCCCC1NC(=O)COC(=O)c1ccc2c(c1)NC(=O)CS2 (centres undefined) | inactive: 22%
50 | O=C(Nc1nccs1)C1CC(=O)N(CCc2ccc(F)cc2)C1 (centres undefined) | inactive: 8.69%
51 | COc1ccc(C(=O)COC(=O)c2ccc(Cl)nc2)cc1OC | inactive: 16.1%
52 | Cc1cccc(-c2nnc(SCC(=O)Nc3cc(C)on3)n2C)c1 | inactive: -4.79%
53 | O=C(CN1C(=O)S/C(=C/C=C/c2ccccc2)C1=O)Nc1ccc(C(=O)O)cc1 | inactive: 8.56%
54 | CC(=O)NCc1nnc2c3ccccc3c(-c3ccccc3)nn12 | inactive: 1.12%
